{
  "source": "ChEMBL document CHEMBL5308541",
  "about": "“MAIP: An Open-Source Tool to Enrich High-Throughput Screening Output and Identify Novel, Druglike Molecules with Antimalarial Activity” (ACS Med Chem Lett, 2023)",
  "note": "About 540 (0.36%) of roughly 150,000 compounds showed an effect of 50% or more. The list shows a part of the results.",
  "data": [
    {"system": "Plasmodium falciparum", "experiment": "Primary screen in NF54 nanoGlo assay, in single point, at 2uM, 72h; a lower Z score goes with more inhibition", "type": "functional, Erythrocyte", "conditions": "timepoint 72 hour", "units": {"% Inhibition": "%"}, "values": [
      {"compound": "CCN(C(C)=O)c1nc(CN2CC=C(c3c[nH]c4cc(F)ccc34)CC2)cs1", "% Inhibition": 25, "Z score": -4.44},
      {"compound": "CC(C)c1noc(-c2ccc(OCC(=O)N3CCN(C4CCN(C)CC4)CC3)cc2)n1", "% Inhibition": 1, "Z score": -0.15},
      {"compound": "Cc1cc(-c2ccc(C(=O)NC3COCC3N3CCCC3)cc2)nc(N)n1", "note": "(centres undefined)", "% Inhibition": 1, "Z score": -0.19},
      {"compound": "Cn1ncc2c(N3C4CCNCC3CC4)nc(C3CCCC3)nc21", "note": "(centres undefined)", "% Inhibition": -3, "Z score": 0.51},
      {"compound": "CC(Cc1ccc(O)cc1)NC1CCCc2c1[nH]c1ccccc21", "note": "(centres undefined)", "% Inhibition": 0, "Z score": 0.09},
      {"compound": "Cc1cccc2c(C3=CCNCC3)c[nH]c12", "% Inhibition": 2, "Z score": -0.29},
      {"compound": "COc1ccc(-c2csc3ncnc(N(C)C4CCN(C[C@H]5CCOC5)CC4)c23)cc1", "% Inhibition": -12, "Z score": 2.3},
      {"compound": "COc1ccc2[nH]cc(C3CCN([C@H]4CCN(C5CCOCC5)C4=O)CC3)c2c1", "% Inhibition": -3, "Z score": 0.53},
      {"compound": "N[C@H]1CCCCCN(Cc2[nH]nc3ccccc23)C1", "% Inhibition": 2, "Z score": -0.3},
      {"compound": "Fc1ccc2c(CCNCc3cc(Cl)c4c(c3)OCCCO4)c[nH]c2c1", "% Inhibition": -5, "Z score": 0.78},
      {"compound": "O=C(NC1COCC1N1CCCCC1)c1cc(-c2ccsc2)[nH]n1", "note": "(centres undefined)", "% Inhibition": -6, "Z score": 1.23},
      {"compound": "CN(c1nc2nonc2nc1N1CCOCC1)C1CC(C)(C)NC(C)(C)C1", "% Inhibition": -3, "Z score": 0.43},
      {"compound": "CCc1nnc(NCc2ccc(C)nc2N2CCCC2)nc1CC", "% Inhibition": -19, "Z score": 2.94},
      {"compound": "CO[C@H]1C[C@@H](CN2CCCC2)N(C(=O)Cc2ccc3[nH]ncc3c2)C1", "% Inhibition": 10, "Z score": -1.8},
      {"compound": "O=C1[C@@H](n2c(-c3cnccn3)noc2=O)CCN1CC(F)(F)F", "% Inhibition": -10, "Z score": 2.16},
      {"compound": "COC(=O)c1cc(S(=O)(=O)N(C)[C@H]2CN3CCC2CC3)ccc1C", "% Inhibition": 20, "Z score": -3.41},
      {"compound": "Cc1[nH]c2ccccc2c1C1=CCNCC1", "% Inhibition": 10, "Z score": -1.92},
      {"compound": "Cc1ccccc1OCCCNC(=O)CC1CC2CCC(C1)N2", "note": "(centres undefined)", "% Inhibition": 2, "Z score": -0.46},
      {"compound": "CCc1cc(N(C)C2CCN(C[C@H]3CCOC3)CC2)n2c(nc3ccccc32)c1C#N", "% Inhibition": -9, "Z score": 1.54},
      {"compound": "O=C1CNCCN1C1CCCN(CC2CC3CCC2N3)C1", "note": "(centres undefined)", "% Inhibition": -7, "Z score": 1.41},
      {"compound": "Fc1ccc(N2CC[C@H](CN3CCC(c4c[nH]c5ccccc45)(c4c[nH]c5ccccc45)CC3)C2)cc1", "% Inhibition": 95, "Z score": -18.87},
      {"compound": "Cc1ccc([C@@H](O)CNCc2cc(O)cc(Cl)c2)cc1", "% Inhibition": 7, "Z score": -1.59},
      {"compound": "CNC(=O)c1cc2cc(NC(=O)c3ccc(-c4noc(=O)[nH]4)cc3)ccc2[nH]1", "% Inhibition": 16, "Z score": -3.35},
      {"compound": "Cc1ncsc1CCn1c(-c2ccncc2)noc1=O", "% Inhibition": 1, "Z score": -0.2},
      {"compound": "c1cc2[nH]ncc2cc1N[C@H]1CN2CCC1CC2", "% Inhibition": -12, "Z score": 2.17},
      {"compound": "O=C(OCCn1cncn1)C1CC12CCCc1ccccc12", "note": "(centres undefined)", "% Inhibition": -4, "Z score": 0.82},
      {"compound": "CC(C)N1CCN([C@H]2CCN(C(=O)Cc3cccc4cnccc34)C2)CC1", "% Inhibition": -4, "Z score": 0.62},
      {"compound": "COC1CCN(C2CCCC2NC(=O)c2ncnc3[nH]ccc23)C1", "note": "(centres undefined)", "% Inhibition": -5, "Z score": 0.93},
      {"compound": "CCOC(=O)c1cnc(N(C)C2CCN(OC)CC2)nc1C", "% Inhibition": -17, "Z score": 3.65},
      {"compound": "CCn1nc(C)c(-c2cccc(C(=O)NC3COCC3N3CCCC3)c2)c1C", "note": "(centres undefined)", "% Inhibition": -2, "Z score": 0.49},
      {"compound": "CN1CCN(c2ccc(NCC3(C)CCOCC3)nc2)CC1", "% Inhibition": -9, "Z score": 1.55},
      {"compound": "C[C@H]1C(=O)N(C)CCN1C(=O)c1cn(Cc2ccccc2)c2ccccc12", "% Inhibition": -8, "Z score": 1.33},
      {"compound": "CN(C)C(=O)c1ccc(CN2CC=C(c3c[nH]c4ccccc34)CC2)[nH]1", "% Inhibition": -6, "Z score": 1.01},
      {"compound": "OC1CCC(NCc2c[nH]c3ccc(Br)cc23)CC1", "note": "(centres undefined)", "% Inhibition": 5, "Z score": -0.95},
      {"compound": "CCOC1COCC1n1cc(C(=O)Nc2c(F)cccc2F)nn1", "note": "(centres undefined)", "% Inhibition": 8, "Z score": -1.19},
      {"compound": "Cc1ccc(-c2cc(C(=O)NC3CCCC3N(C)C)n[nH]2)cc1", "note": "(centres undefined)", "% Inhibition": -3, "Z score": 0.51},
      {"compound": "FC(F)(F)c1ccc2c(N3CCN4CCOC[C@@H]4C3)nccc2c1", "% Inhibition": -4, "Z score": 0.65},
      {"compound": "COC[C@H]1CCCN1C[C@H]1CN2CC[C@H]1C[C@@H]2CNC(=O)c1ccc(C(F)(F)F)cc1", "% Inhibition": 16, "Z score": -2.44},
      {"compound": "CC(C)Nc1cc(N2CCN([C@H]3CN4CCC3CC4)CC2)ncn1", "% Inhibition": -7, "Z score": 1.06},
      {"compound": "COc1ccc(CCNCc2ccc3[nH]cnc3c2)c(Cl)c1", "% Inhibition": 24, "Z score": -5.08},
      {"compound": "O=c1[nH]c2ccc(S(=O)(=O)N3CC4(CCCC4)c4ccccc43)cc2o1", "% Inhibition": -1, "Z score": 0.28},
      {"compound": "Brc1cccc2[nH]cc(CCNC3CCN([C@H]4CCOC4)CC3)c12", "% Inhibition": 5, "Z score": -0.89},
      {"compound": "CNC(=O)Oc1ccc2ncccc2c1", "% Inhibition": -8, "Z score": 1.43},
      {"compound": "COc1cncc(-c2ccc(C(=O)NC3COCC3N3CCCCC3)cc2)c1", "note": "(centres undefined)", "% Inhibition": -8, "Z score": 1.19},
      {"compound": "O=C(Nc1ccc2[nH]cc(CCN3CCCC3)c2c1)c1c(F)c(F)c(F)c(F)c1F", "% Inhibition": -2, "Z score": 0.31},
      {"compound": "COc1cc(C)nc(N2CC3COCC3(CN3CCCC3)C2)n1", "note": "(centres undefined)", "% Inhibition": 0, "Z score": -0.02},
      {"compound": "O=C(N[C@H]1COC[C@@H]1N1CCCCC1)c1cnn2cc(CCO)cnc12", "% Inhibition": -3, "Z score": 0.59},
      {"compound": "Cc1ncc2c(c1-c1noc(C3CCN(C)CC3)n1)CCN(c1cnccn1)C2", "% Inhibition": -3, "Z score": 0.59},
      {"compound": "C1CCC(CCN2CC[C@@]3(CCCN3)C2)C1", "% Inhibition": -5, "Z score": 0.93},
      {"compound": "Fc1ccc(CCN2CCC(Nc3ccc4c(cnn4C(F)F)c3)CC2)cc1", "% Inhibition": -2, "Z score": 0.36},
      {"compound": "COc1ccc(CCN2CCC(CNC(=O)c3nc(Cn4c(=O)oc5ccccc54)no3)CC2)cc1", "% Inhibition": 1, "Z score": -0.19},
      {"compound": "CN1CCC2C(CCCN2Cc2ncc(Cl)s2)C1", "note": "(centres undefined)", "% Inhibition": 0, "Z score": 0.05},
      {"compound": "CN1C2CCCC1CC(Nc1nnc(-c3ccccn3)o1)C2", "note": "(centres undefined)", "% Inhibition": -6, "Z score": 1.01},
      {"compound": "Nc1ccc(N[C@H]2CCCN(CC3CC3)CC2)cn1", "% Inhibition": -7, "Z score": 1.13},
      {"compound": "O=C(NC[C@H]1C[C@@H]2CCN1C[C@@H]2CN1CCN(C(=O)c2ccc3c(c2)OCO3)CC1)c1ccc2c(c1)OCO2", "% Inhibition": 3, "Z score": -0.46},
      {"compound": "CC(C)OC[C@@H](O)Cn1c(-c2cccnc2)noc1=O", "% Inhibition": -1, "Z score": 0.24},
      {"compound": "CN1CCC(N(C)c2ccccc2CNC[C@@H](O)c2cccc(Cl)c2)CC1", "% Inhibition": 22, "Z score": -4.82},
      {"compound": "CS(=O)(=O)Cc1nc(CN2CCC[C@H](C(=O)c3ccc(F)cc3)C2)cs1", "% Inhibition": -14, "Z score": 2.75},
      {"compound": "Cc1ccc(NCC2CCN(C)CC2)nn1", "% Inhibition": -14, "Z score": 2.4},
      {"compound": "C[C@@H](Cc1ccccc1)NCCc1ccc(N)cc1", "% Inhibition": -13, "Z score": 1.94},
      {"compound": "c1ccc(-c2ccc(CNC[C@@H]3CCCN4CCCC[C@H]34)s2)nc1", "% Inhibition": -1, "Z score": 0.13},
      {"compound": "O=C(NC1COCC1N1CCCCC1)c1ccc(-c2cccc(O)n2)cc1", "note": "(centres undefined)", "% Inhibition": -1, "Z score": 0.17},
      {"compound": "C[C@@H](CN1CCN(C)CC1)NC(=O)N1CCC(Nc2ccccc2F)CC1", "% Inhibition": -2, "Z score": 0.37},
      {"compound": "Cc1[nH]c2ccccc2c1CC(=O)NC1COCC1N1CCCCC1", "note": "(centres undefined)", "% Inhibition": 5, "Z score": -0.74},
      {"compound": "O=C1NC2(CCCC2)C(=O)N1CCn1c(-c2cccnc2)noc1=O", "% Inhibition": 3, "Z score": -0.51},
      {"compound": "CC(C)(C)c1ccc(CNC[C@H](O)c2ccc(F)cc2F)cc1", "% Inhibition": 94, "Z score": -16.43},
      {"compound": "O=C(N[C@@H]1CCC[C@@H]1N1CCC(O)C1)c1ccc2[nH]ccc2c1", "note": "(some centres undefined)", "% Inhibition": -3, "Z score": 0.42}
    ]}
  ]
}
